The whole screen tested about 330,000 compounds, of which about 4,200 (1.3%) were called active. The shares of active, inactive and inconclusive entries below differ from those in the screen. Calls come from the whole dose curve; as a rule, active = well fitted activation curve with a large enough effect; inconclusive = small, poorly fitted or top-dose-only effect; inactive = no such curve, though single readings can be large or run the other way. A potency beside an inconclusive call is a rough fit, not a confirmed value. The source holds several records for some structures; these can differ, active in one and inactive in another.
Assay: qHTS screen for small molecules that induce genotoxicity in human embryonic kidney (HEK293T) cells expressing luciferase-tagged ELG1; note: nearly all actives have a fitted effect of over 60% in size; for activity change, positive = activation: % of control where 0% means no effect
Settings: HEK293T ELG1-luciferase reporter, luminescence, 16 h; series mostly up to 46 µM; activity change, positive = activation: at the top concentration
How it was run: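 16 hr compound incubation (37 °C, 5% CO2) of HEK293T cells carrying luciferase-tagged ELG1; luciferase then measured by ONE-Glo luminescence after 30 min at RT.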
Potency is the fitted concentration of half-maximal effect; tags give direction and shape of the fitted curve.

Q: Which Potency does the source give for `CC(C)COc1ccc(/C=C2/Sc3ccccc3C2=O)cc1` here?
A: inconclusive: 20.6 µM [activator, single point]

Q: Which “activity change, positive = activation” value does the source give for `CCCCNc1cc(F)nc(N)n1` here?
A: inactive: 10.4%

Q: For `C[C@]12C(=O)N(c3ccc(Br)cc3)C(=O)N1[C@H]1c3ccccc3OC[C@@H]1[C@H]2c1ccccc1`, which “activity change, positive = activation” value is on record?
A: inactive: 1.24%

Q: For `O=C(O)c1ccc(N/N=C/C(Br)=C/c2ccccc2)cc1`, which Potency is on record?
A: inconclusive: 2.91 µM [activator, full curve]

Q: For `C=CCN(CC(=O)NC1CCCC1)C(=O)C(=O)Nc1ccc2c(c1)OCCO2`, which “activity change, positive = activation” value is on record?
A: inactive: -1.85%

Q: For `CC1=C(C(=O)c2ccccc2)C(c2ccc(N3CCOCC3)cc2)NC(=O)N1` (configuration not stated), which “activity change, positive = activation” value is on record?
A: inactive: -1.2%

Q: With `Cc1ccc(-c2ccc(SCC(=O)c3ccccc3)nn2)cc1` as the compound, how does the Potency read?
A: inconclusive: 20.6 µM [activator, partial curve, poor fit]

Q: With `CCOc1cc2[nH]c(=S)n(CC3CCCO3)c(=O)c2cc1OCC` (configuration not stated) as the compound, how does the “activity change, positive = activation” value read?
A: inactive: -5.1%

Q: Which Potency does the source give for `Cc1ccc(C(=O)CSc2nn3c(=O)c(C(C)(C)C)nnc3s2)cc1` here?
A: inconclusive: 32.6 µM [activator, partial curve, poor fit]

Q: With `CN(C)C(=O)CSc1nnc(C23CC4CC(CC(C4)C2)C3)o1` as the compound, how does the Potency read?
A: active: 9.2 µM

Q: With `Cc1ccc(CNC(=O)Nc2cccc(C)c2)cc1` as the compound, how does the Potency read?
A: inconclusive: 20.6 µM [activator, partial curve, poor fit]

Q: Which Potency does the source give for `Nc1[nH]nc2c1NN(c1ccc(Cl)cc1Cl)N2` here?
A: inconclusive: 25.9 µM [activator, partial curve, poor fit]

Q: For `NS(=O)(=O)c1ccc2nc(NC(=O)c3ccc(Br)o3)sc2c1`, which Potency is on record?
A: inconclusive: 18.3 µM [activator, partial curve, poor fit]

Q: For `CN(CC(=O)Nc1ccc(Cl)cc1)C(=O)CNC(=O)c1ccc2c(c1)OCO2`, which Potency is on record?
A: inconclusive: 29.1 µM [activator, partial curve, poor fit]

Q: With `O=C(N/N=C/c1cccc([N+](=O)[O-])c1)c1cc2ccccc2o1` as the compound, how does the Potency read?
A: inconclusive: 29.1 µM [activator, single point]

Q: Which Potency does the source give for `CC(=O)Nc1ccc(C(=O)COC(=O)c2cccs2)c(F)c1` here?
A: inconclusive: 13 µM [activator, partial curve, poor fit]

Q: Which “activity change, positive = activation” value does the source give for `N/C(CS(=O)(=O)c1ccccn1)=N\OC(=O)c1ccc(Cl)cc1` here?
A: inactive: 8.79%

Q: For `COc1cc(C(=O)OCC(=O)c2cc(C)n(C)c2C)cc(OC)c1OC`, which “activity change, positive = activation” value is on record?
A: inactive: -3.86%

Q: For `O=C(CNC(=O)c1cc2c(s1)CCC2)Nc1ccccc1Br`, which Potency is on record?
A: inconclusive: 18.4 µM [activator, partial curve]

Q: With `O=S(=O)([N-]c1nc2ccccc2nc1-[n+]1ccc(-c2ccncc2)cc1)c1ccccc1` as the compound, how does the Potency read?
A: inconclusive: 16.4 µM [activator, partial curve]

Q: Which Potency does the source give for `CCNC(=S)/N=C(\N)Nc1nc(C)c2cc(C)ccc2n1` here?
A: inconclusive: 5.17 µM [activator, full curve]

Q: For `CCOC(=O)c1csc(NC(=O)CN2CCN(C)CC2)n1`, which “activity change, positive = activation” value is on record?
A: inactive: 3.72%

Q: Which Potency does the source give for `O=C(CSc1ccccc1)Nc1ccc(N2CCOCC2)c(F)c1` here?
A: inconclusive: 29.1 µM [activator, single point]

Q: Which Potency does the source give for `O=C(/C=C/Nc1ccc(F)cc1)c1ccc(Br)cc1` here?
A: inconclusive: 2.06 µM [activator, partial curve]

Q: Which “activity change, positive = activation” value does the source give for `CN(C)S(=O)(=O)c1cccc(NC(=S)N/N=C/C(c2ccccc2)c2ccccc2)c1` here?
A: inactive: -0.755%

Q: For `O=C(Nc1sc2c(c1C(=O)O)CCCC2)c1ccc(Cl)cc1`, which “activity change, positive = activation” value is on record?
A: inactive: -2.06%

Q: Which “activity change, positive = activation” value does the source give for `Cc1cc(C)c(S(=O)(=O)C(C)C)c(=O)[nH]1` here?
A: inactive: 4.36%

Q: For `COc1ccc(C(=O)/C=C/c2ccc(OC)cc2OC)c(O)c1`, which Potency is on record?
A: inconclusive: 16.4 µM [activator, partial curve]

Q: For `O=C(O)c1cccc(N/N=C/C2=C(Cl)c3cc(Cl)ccc3SC2)c1`, which Potency is on record?
A: active: 0.58 µM

Q: With `COc1ccc(-n2cnc3cc(NCc4ccco4)ccc32)cc1` as the compound, how does the Potency read?
A: active: 20.6 µM

Q: Which “activity change, positive = activation” value does the source give for `CC(=O)c1sc(NC(=O)c2ccccc2F)nc1-c1ccccc1` here?
A: inactive: -17.1%

Q: With `CCCN1CCC(N2CCN(c3ccccc3OC)CC2)CC1` as the compound, how does the “activity change, positive = activation” value read?
A: inactive: -4.81%

Q: Which “activity change, positive = activation” value does the source give for `O=C(Nc1ccon1)c1cccc(C(F)(F)F)c1` here?
A: inactive: 3.41%

Q: With `Cc1ccc(-c2nc(C=Nc3cccc(C)c3)c(O)o2)cc1` as the compound, how does the “activity change, positive = activation” value read?
A: inactive: 11.8%

Q: Which “activity change, positive = activation” value does the source give for `Cc1cc(C)cc(OCC(=O)OCC(=O)Nc2cc(S(=O)(=O)N3CCOCC3)ccc2C)c1` here?
A: inactive: -2.51%

Q: With `O=C(NCCCn1ccnc1)C(=O)NCC1OCCN1S(=O)(=O)c1ccc(Br)cc1` (configuration not stated) as the compound, how does the “activity change, positive = activation” value read?
A: inactive: -7.03%

Q: For `C=C(C)CSc1nnc(-c2ccc(C)cc2)n1N`, which Potency is on record?
A: active: 10 µM

Q: Which “activity change, positive = activation” value does the source give for `Cc1cc(C)cc(-n2c(C)cc(/C=N\NC(=O)COc3cccc4cccnc34)c2C)c1` here?
A: inactive: -3.71%

Q: For `COc1ccccc1C1N=C(c2ccccc2C)NO1` (configuration not stated), which Potency is on record?
A: active: 10.3 µM

Q: Which “activity change, positive = activation” value does the source give for `Cn1cc(C(=O)NC2CCCCC2)c(=O)c2cc(S(=O)(=O)N3CCOCC3)ccc21` here?
A: inactive: 2.94%

Q: Which Potency does the source give for `COc1ccc(-c2csc(-c3[nH]cnc3N)n2)cc1` here?
A: inconclusive: 32.6 µM [activator, single point]

Q: For `COc1ccc(NC(=O)COC(=O)C23CC4CC(CC(O)(C4)C2)C3)cc1Cl`, which Potency is on record?
A: inconclusive: 10.3 µM [activator, single point]

Q: Which Potency does the source give for `O=C1NC(c2ccc(Br)cc2)=N/C1=C/c1ccco1` here?
A: inconclusive: 4.61 µM [activator, partial curve]

Q: For `O=C(NC1CCN(C(=O)N2c3ccccc3Sc3ccccc32)CC1)c1ccco1`, which “activity change, positive = activation” value is on record?
A: inactive: -27.3%

Q: For `CCSCc1nnc(SCC(=O)Nc2nccs2)n1CC`, which “activity change, positive = activation” value is on record?
A: inactive: -2.75%

Q: With `O=C(Nc1nc2ccccc2s1)c1cnccn1` as the compound, how does the Potency read?
A: active: 0.461 µM

Q: For `O=C(NCC1CCCO1)c1ccc2c3n(nc2c1)-c1ccccc1CO3` (configuration not stated), which Potency is on record?
A: inconclusive: 2.31 µM [activator, partial curve]

Q: With `Cc1csc(=O)n1CC(=O)Nc1ccc(C(C)C)cc1` as the compound, how does the Potency read?
A: inconclusive: 20.6 µM [activator, single point]

Q: With `Cc1ccc(C(=O)c2c3ccc(C(F)(F)F)cc3nn2CCC(N)=O)cc1` as the compound, how does the “activity change, positive = activation” value read?
A: inactive: 3.81%

Q: For `Cc1c(C(=O)N(C)C(C)c2ccccn2)oc2c(F)cccc12` (configuration not stated), which “activity change, positive = activation” value is on record?
A: inactive: 4.8%

Q: For `Oc1ccc(-c2csc(-c3c[nH]c4ccccc34)n2)c(O)c1`, which Potency is on record?
A: inconclusive: 16.4 µM [activator, partial curve]

Q: For `Cc1cc(C(=O)Nc2ccccc2)oc(=O)c1`, which Potency is on record?
A: inconclusive: 18.3 µM [activator, partial curve, poor fit]

Q: For `Cc1nc2ccccc2nc(=O)c1NNc1ccccc1`, which Potency is on record?
A: active: 9.2 µM

Q: Which Potency does the source give for `O=C(C1CC(c2ccccc2O)=NO1)N1CCc2ccccc2C1` (configuration not stated) here?
A: inconclusive: 20.6 µM [activator, partial curve]

Q: Which Potency does the source give for `Cn1c(SCC(=O)c2ccc(F)cc2)nnc1-c1cnccn1` here?
A: inconclusive: 7.31 µM [activator, single point]

Q: With `CCOC(=O)c1nn(-c2cccc(OC)c2)c2nc(Nc3ccccc3)cc(=O)n12` as the compound, how does the “activity change, positive = activation” value read?
A: inactive: -0.902%

Q: With `O=C(ONc1ccc(N=NC(=O)c2ccccc2O)cc1)c1ccccc1` as the compound, how does the Potency read?
A: active: 10.3 µM

Q: Which Potency does the source give for `CCN(CC)c1ccc(/C=N/NC(=O)CNC(=O)C2COc3ccccc3O2)c(O)c1` (configuration not stated) here?
A: inconclusive: 20.6 µM [activator, partial curve, poor fit]

Q: With `O=C(O)C(=O)/C(=C\c1ccsc1)c1ccc2ccccc2n1` as the compound, how does the Potency read?
A: inconclusive: 14.6 µM [activator, partial curve, poor fit]

Q: For `COc1cccc(-c2cc(C(=O)N3CCc4ccccc4C3)no2)c1`, which Potency is on record?
A: inconclusive: 29.1 µM [activator, partial curve, poor fit]

Q: With `C[C@H](CO)N1C[C@H](C)[C@@H](CN(C)S(=O)(=O)c2cccs2)Oc2c(NS(=O)(=O)c3cn(C)cn3)cccc2C1=O` as the compound, how does the “activity change, positive = activation” value read?
A: inactive: 1.74%

Q: Which Potency does the source give for `O=C(Nc1ccccc1)c1ccc(C(=O)Nc2ccccc2)nc1` here?
A: inconclusive: 5.17 µM [activator, partial curve]

Q: For `NC(=O)C1CCN(c2nc(-c3ccccc3F)cs2)CC1`, which Potency is on record?
A: inconclusive: 1.03 µM [activator, full curve, poor fit]

Q: With `COc1cccc(-c2nc(C(=O)NCC3CCCO3)cc3c2[nH]c2ccccc23)c1` (configuration not stated) as the compound, how does the “activity change, positive = activation” value read?
A: inactive: -14%

Q: With `O=C1CCCN1CCCNc1ccc2nnc(CCC(=O)N3CCN(c4ccc(F)cc4)CC3)n2n1` as the compound, how does the “activity change, positive = activation” value read?
A: inactive: 1.73%

Q: For `CCN(CC)c1ccc(NC(=O)Nc2ccccc2)cc1`, which Potency is on record?
A: active: 10.3 µM

Q: For `O=C(/C=C/c1cccnc1)/C=C/c1cccnc1`, which Potency is on record?
A: inconclusive: 3.26 µM [activator, partial curve, poor fit]

Q: With `Cc1cc(OCC(=O)Nc2ccc(F)c(F)c2)nc(C(C)C)n1` as the compound, how does the “activity change, positive = activation” value read?
A: inactive: -0.527%

Q: Which Potency does the source give for `CCN1C(=O)C2CCCCN2c2ccc(C(=O)NCCOC)cc21` (configuration not stated) here?
A: inconclusive: 29.1 µM [activator, partial curve, poor fit]

Q: For `COc1ccc(-c2cn3cccc(C)c3n2)cc1F`, which Potency is on record?
A: active: 4.61 µM

Q: For `O=C(NNC(=O)c1ccc(-c2ccccc2)cc1)Nc1ccc(F)cc1F`, which Potency is on record?
A: inconclusive: 32.6 µM [activator, partial curve, poor fit]

Q: Which Potency does the source give for `COC(=O)c1sc(N2C(=O)C(O)=C(C(=O)c3ccc(C)o3)C2c2ccc([N+](=O)[O-])cc2)nc1C` (configuration not stated) here?
A: inconclusive: 9.2 µM [activator, partial curve]

Q: Which Potency does the source give for `Cc1cc2nc(-c3cccnc3SCC(=O)NCc3ccco3)[nH]c2cc1C` here?
A: inconclusive: 8.2 µM [activator, partial curve]

Q: For `O=C(CCN1C(=O)/C(=C\c2ccccc2F)SC1=S)Nc1ccc(C(=O)O)c(O)c1`, which “activity change, positive = activation” value is on record?
A: inactive: 3.24%

Q: With `CC(=O)c1c(C)[nH]c(C(=O)Nc2ccccn2)c1C` as the compound, how does the Potency read?
A: active: 10.3 µM

Q: For `COc1ccc(/C(C)=N/Nc2ccc(C(=O)O)cc2)cc1OC`, which Potency is on record?
A: inconclusive: 3.66 µM [activator, full curve]

Q: For `Cn1c(SCc2ccccc2Cl)nc2ccccc21`, which Potency is on record?
A: active: 5.8 µM
